# Data reported in the antibiotic and cytotoxicity screens of Wong et al. (2023).
# The list shows a part of the results.
# Tests used:
# [1] = tested on: HSkMC (human skeletal muscle cells); assay: cytotoxicity call (relative viability < 0.9); settings: 10 µM
# [2] = tested on: HepG2; assay: cytotoxicity call (relative viability < 0.9); settings: 10 µM
# [3] = tested on: S. aureus RN4220; assay: growth inhibition call (relative growth <= 0.2); settings: 50 µM
Compound,cytotoxicity call [1],cytotoxicity call [2],growth inhibition call [3]
CC1(CO)COC1,inactive,inactive,inactive
C[C@H](CO)N1C[C@H](C)[C@@H](CN(C)Cc2ccc(Cl)c(Cl)c2)Oc2c(NC(=O)Nc3ccc(C(F)(F)F)cc3)cccc2C1=O,active,active,inactive
C[C@@H](N)c1ccc(F)cc1F,inactive,inactive,inactive
Cc1ccc(S(=O)(=O)N(C)C[C@H]2OCCCC[C@@H](C)Oc3ccc(NS(=O)(=O)c4ccc(Cl)cc4)cc3C(=O)N([C@@H](C)CO)C[C@@H]2C)cc1,inactive,inactive,inactive
C[C@@H]1CN([C@@H](C)CO)C(=O)CCCn2cc(nn2)CO[C@H]1CN(C)S(=O)(=O)c1ccccc1C#N,inactive,inactive,inactive
C[C@H]1CN([C@@H](C)CO)C(=O)c2cccc(NC(=O)c3cnccn3)c2O[C@@H]1CN(C)Cc1ccc2c(c1)OCO2,inactive,inactive,inactive
COc1cccc(-c2cn(CC[C@@H]3CC[C@H](NS(=O)(=O)c4ccccc4Cl)[C@H](CO)O3)nn2)c1,inactive,inactive,inactive
C[C@H](CO)N1C[C@H](C)[C@@H](CN(C)S(=O)(=O)c2ccccc2)OCCCC[C@H](C)Oc2ccc(NC(=O)c3ccccc3)cc2C1=O,inactive,inactive,inactive
C[C@@H]1CN([C@@H](C)CO)C(=O)Cc2cc(NC(=O)Cc3cn(C)c4ccccc34)ccc2O[C@H]1CN(C)CC1CCCCC1,inactive,inactive,inactive
C[C@H](CO)N1C[C@H](C)[C@H](CN(C)S(=O)(=O)c2cccs2)Oc2ccc(NC(=O)c3ccncc3)cc2C1=O,inactive,inactive,inactive
